# Measured values: the supplement of paper PMC3334620
# Over roughly 33,000 sequences, “E-score (-0.5 to 0.5)” has its median near -0.053; the highest 2% begin near 0.37. This is one part of the list.
# Target: Hap1 (UniProt P0CE41)
# Assay: PBM E-score (8-mer binding enrichment) (E-score (-0.5 to 0.5)); higher = stronger / more preferred TF binding; most listed sequences are background and not binding sites
# Details: protein concentration: 200 nM; construct: GST-DNA-binding domain
# How it was run: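 Full-length yeast transcription factors or their DNA-binding domains, GST-tagged and expressed with PURExpress, were applied at about 100-200 nM to universal all-10-mer Agilent arrays. These arrays had been made double-stranded by primer extension on fresh or once-stripped slides. Detection used fluorescent anti-GST, normalisation used masliner, and E-scores for ungapped eight-base words pooled with reverse complements came from the Universal PBM Analysis Suite.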
# Chain of UniProt P0CE41 (P0CE41 whole entry): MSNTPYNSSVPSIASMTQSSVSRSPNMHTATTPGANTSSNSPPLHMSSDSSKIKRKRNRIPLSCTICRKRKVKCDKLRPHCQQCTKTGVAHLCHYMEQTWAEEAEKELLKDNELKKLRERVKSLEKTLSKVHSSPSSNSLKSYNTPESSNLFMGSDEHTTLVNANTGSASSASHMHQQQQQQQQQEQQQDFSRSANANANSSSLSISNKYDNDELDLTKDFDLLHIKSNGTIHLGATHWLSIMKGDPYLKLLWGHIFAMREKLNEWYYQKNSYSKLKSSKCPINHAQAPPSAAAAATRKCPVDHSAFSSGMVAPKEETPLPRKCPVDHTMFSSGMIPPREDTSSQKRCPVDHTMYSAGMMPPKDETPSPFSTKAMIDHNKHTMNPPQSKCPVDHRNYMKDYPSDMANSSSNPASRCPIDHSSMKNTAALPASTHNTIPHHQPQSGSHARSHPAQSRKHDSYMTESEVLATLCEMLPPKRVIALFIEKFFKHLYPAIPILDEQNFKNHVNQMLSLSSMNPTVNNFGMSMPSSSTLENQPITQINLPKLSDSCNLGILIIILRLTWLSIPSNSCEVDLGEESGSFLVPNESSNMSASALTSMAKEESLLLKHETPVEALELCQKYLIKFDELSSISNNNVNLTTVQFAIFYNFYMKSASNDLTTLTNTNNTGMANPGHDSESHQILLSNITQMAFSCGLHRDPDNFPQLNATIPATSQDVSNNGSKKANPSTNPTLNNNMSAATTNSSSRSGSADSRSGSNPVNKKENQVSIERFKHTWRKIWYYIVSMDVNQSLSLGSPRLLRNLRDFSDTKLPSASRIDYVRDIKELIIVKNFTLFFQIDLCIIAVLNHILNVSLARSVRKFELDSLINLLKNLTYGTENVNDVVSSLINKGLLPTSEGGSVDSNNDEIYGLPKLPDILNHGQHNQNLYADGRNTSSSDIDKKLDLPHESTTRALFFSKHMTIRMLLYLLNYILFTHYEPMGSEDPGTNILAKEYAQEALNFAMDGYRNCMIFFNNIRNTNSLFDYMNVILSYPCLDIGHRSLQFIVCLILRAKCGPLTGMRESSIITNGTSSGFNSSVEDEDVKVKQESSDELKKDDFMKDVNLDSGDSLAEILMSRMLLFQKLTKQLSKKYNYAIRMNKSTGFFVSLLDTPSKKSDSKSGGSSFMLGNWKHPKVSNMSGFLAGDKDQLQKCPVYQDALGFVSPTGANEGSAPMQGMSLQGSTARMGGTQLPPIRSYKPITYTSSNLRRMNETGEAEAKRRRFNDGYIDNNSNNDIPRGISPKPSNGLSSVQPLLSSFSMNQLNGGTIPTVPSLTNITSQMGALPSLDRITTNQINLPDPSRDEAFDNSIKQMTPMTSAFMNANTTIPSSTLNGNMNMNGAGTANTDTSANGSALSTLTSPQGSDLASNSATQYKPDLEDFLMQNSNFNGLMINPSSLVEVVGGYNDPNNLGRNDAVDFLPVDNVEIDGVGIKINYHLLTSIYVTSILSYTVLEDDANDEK
row,Sequence,PBM E-score
1,ATGAACGC,-0.123
2,ATAGCGTC,-0.209
3,GCCACGCC,-0.214
4,CACTTCGA,-0.184
5,CTACAGGC,0.0132
6,ACGTTCGC,-0.0585
7,AGAACGGC,0.124
8,CCATGAAC,-0.066
9,TATGGACA,-0.0147
10,AATCAACG,-0.0391
11,ACTGGCTC,-0.189
12,CAGGTGCG,-0.0122
13,AGTCGTGC,-0.162
14,AGGTCCCC,-0.0485
15,AGTTGCAC,-0.0539
16,ATGTTAGC,-0.0912
17,ACTCAATC,-0.203
18,TAGTTAGA,-0.125
19,GCCCATCC,-0.0762
20,AATCGGCT,0.314
21,CAGGGCAG,-0.155
22,AGTATTCG,-0.00102
23,CAAAGTTC,0.0658
24,CTTATTAA,0.0248
25,TACTAACA,-0.203

row,Sequence,PBM E-score
1,CGGCGGCC,0.149
2,CATTGTGC,-0.163
3,CGTGCGGA,0.171
4,AATCCGTG,0.218
5,CAGGAGAA,-0.147
6,GGTACACA,-0.116
7,CACAGATG,-0.154
8,CTAGGTTC,0.0667
9,ACACCGCG,0.133
10,CCTGTGAG,-0.301
11,CCTTATCA,-0.178
12,GAACCGGC,0.239
13,ACCCAGAC,-0.132
14,ACATTCTC,-0.11
15,TAGCCACA,-0.185
16,TCTTCCAA,-0.0923
17,GACGAGGC,0.0238
18,AACACCTT,-0.0166
19,AGTAGACT,-0.0369
20,GAATACTA,0.024
21,ATAGGTTA,-0.00756
22,GACGTTCC,0.0589
23,ACATTGCT,-0.214
24,TGGGGAAA,0.0326
25,CGGTCCTA,0.33

row,Sequence,PBM E-score
1,AATTCTAA,-0.0126
2,CTTGTTGA,-0.205
3,AAACATCG,0.0904
4,GGATTCAA,-0.0368
5,CCTAAATC,0.211
6,CATAAAAA,0.00983
7,CAGCATAA,-0.116
8,CAGACGCC,-0.0853
9,AGGCGAAG,-0.0366
10,CCGCCCAA,-0.0507
11,ATTTGCAG,0.0991
12,GCGTTCCA,-0.174
13,CAACGCTC,-0.119
14,CAGAGGAG,-0.217
15,CCTTGGCC,-0.215
16,GCATATTA,0.0952
17,AGTCGTAG,-0.205
18,GCGTTTCC,0.102
19,TACAGGAA,-0.00019
20,CTACCTTA,-0.0888
21,ATGATTCG,0.106
22,GAGTTCTA,-0.122
23,AGCGTGAT,-0.0923
24,GTACGTCA,-0.147
25,ATTGGCCG,0.226

row,Sequence,PBM E-score
1,CCTTTCAC,-0.103
2,GCGTTACA,-0.0249
3,ATCTGTGG,-0.105
4,GCAGCAGA,-0.241
5,ATAATCCG,0.304
6,GTTTTCTA,-0.0815
7,GCCCTGTA,-0.0673
8,AGTACTTC,0.153
9,GAAAAAGA,-0.118
10,ATTCCGGA,0.432
11,GCAAAAAA,0.0316
12,CAGGAATC,-0.0613
13,TATAATGA,-0.104
14,AGAACCAG,-0.0575
15,GGTTCAAA,0.197
16,ATTAAGTG,-0.15
17,CGCACCAG,0.139
18,CGTATCCC,0.0368
19,GCGCGGGA,0.14
20,GCGCCACC,-0.115
21,ATTTCATC,-0.0227
22,AGGCCTTC,-0.14
23,CGACCTTC,0.0839
24,ACCTGAGT,-0.125
25,AGATACAG,-0.0802

row,Sequence,PBM E-score
1,GATCTCGA,0.102
2,ACTGGCAG,-0.124
3,GCATGTGA,-0.0553
4,GACATGCA,-0.125
5,ATGGGTCG,0.165
6,GTCGCATA,-0.0856
7,CGACAGCA,0.0127
8,AAACAGAA,-0.219
9,CCTCACTA,-0.0573
10,ATCGGCCC,0.379
11,TATTAGGA,-0.123
12,CTCATACA,-0.0407
13,CGGCGTAA,0.219
14,AATTCCAA,-0.121
15,CTTCCAGA,-0.303
16,AGGATCCC,-0.0107
17,GCTCCTAA,-0.207
18,ACACGCAG,-0.093
19,GGGATAAA,0.148
20,CCCTCGCA,-0.105
21,GGTCAAAC,0.0779
22,GCAACTGA,-0.102
23,GTCGGAAC,0.306
24,GCTCAGAA,-0.104
25,ACTTTAAG,0.0322

row,Sequence,PBM E-score
1,CCTTTTGC,-0.133
2,ACGCCTGC,-0.178
3,GCATCCGC,0.0714
4,CCGCACGC,0.0435
5,ACCTTACA,-0.22
6,CCCTTGTC,-0.104
7,GGAGATAA,0.455
8,ATAGTGCC,0.0688
9,GCGACGAA,0.0485
10,ACGTAAAA,-0.0775
11,CCTTTAAA,-0.098
12,AAGCAATG,-0.0736
13,TAAGGCTA,-0.0505
14,AAGAGATT,0.0278
15,CCGTTCGC,0.14
16,AACTGACG,-0.0746
17,AGTTGAAG,-0.0891
18,CCGCAGCC,0.107
19,CACATAAC,-0.142
20,ACACCCTA,-0.277
21,AAGCAACC,-0.0771
22,AACACATC,-0.0084
23,GGTTACTA,-0.0409
24,ATCCGACG,0.333
25,AGAGCGCT,-0.105

row,Sequence,PBM E-score
1,AGGACGAT,-0.16
2,GGACGGTA,0.197
3,AGGAACCG,0.204
4,CACGCGAC,-0.0352
5,CGCGCATA,0.193
6,ATCGGAAT,0.363
7,CCTCTGGA,-0.0765
8,ACATAAGG,0.0636
9,GCCTGTCA,-0.192
10,ATTTAAAC,-0.0807
11,AGTCACTG,-0.229
12,GGCTGGAC,-0.0206
13,CTCCTTAA,0.015
14,ACGAACTC,0.0738
15,ATATGTCG,-0.041
16,TAACCTTA,-0.0378
17,AATATACA,-0.113
18,GGTGGTGA,0.107
19,CGTGTTCA,-0.0907
20,ACGCTAAT,0.106
21,CAGGACGG,-0.137
22,ATCTCAAT,-0.137
